Patent US20250388696A1 (NAVIGO PROTEINS, published 2025)

T1: hFAP-Fc (human, UniProt Q12884 26-760, limits assumed)
T1 construct: also called Fc-tagged target (FAP)
T1 sequence (looked up): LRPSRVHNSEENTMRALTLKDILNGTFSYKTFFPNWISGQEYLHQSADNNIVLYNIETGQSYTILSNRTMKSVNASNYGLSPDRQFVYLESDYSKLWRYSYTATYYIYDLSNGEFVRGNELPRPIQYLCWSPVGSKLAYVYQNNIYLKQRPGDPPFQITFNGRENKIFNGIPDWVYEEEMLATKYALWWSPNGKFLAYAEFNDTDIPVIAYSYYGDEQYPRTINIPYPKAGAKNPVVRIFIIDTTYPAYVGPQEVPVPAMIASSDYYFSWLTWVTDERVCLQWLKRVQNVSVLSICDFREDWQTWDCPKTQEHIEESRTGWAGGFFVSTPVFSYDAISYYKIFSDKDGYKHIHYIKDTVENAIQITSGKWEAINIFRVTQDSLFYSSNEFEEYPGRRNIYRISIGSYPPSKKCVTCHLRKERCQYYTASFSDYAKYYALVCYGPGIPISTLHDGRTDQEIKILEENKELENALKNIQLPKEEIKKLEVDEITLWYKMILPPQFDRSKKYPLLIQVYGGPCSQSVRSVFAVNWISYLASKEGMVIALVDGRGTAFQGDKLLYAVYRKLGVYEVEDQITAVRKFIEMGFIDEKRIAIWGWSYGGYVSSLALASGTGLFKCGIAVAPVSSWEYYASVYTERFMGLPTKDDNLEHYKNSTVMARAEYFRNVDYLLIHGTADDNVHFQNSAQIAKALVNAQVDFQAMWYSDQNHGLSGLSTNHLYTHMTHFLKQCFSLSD

T2: human fibroblast activation protein (hFAP) expressed on the surface of HEK293-hFAP cells (human, UniProt Q12884 1-760)
T2 construct: whole, on cells; FAP overexpressing HEK293 cell line
T2 sequence (looked up): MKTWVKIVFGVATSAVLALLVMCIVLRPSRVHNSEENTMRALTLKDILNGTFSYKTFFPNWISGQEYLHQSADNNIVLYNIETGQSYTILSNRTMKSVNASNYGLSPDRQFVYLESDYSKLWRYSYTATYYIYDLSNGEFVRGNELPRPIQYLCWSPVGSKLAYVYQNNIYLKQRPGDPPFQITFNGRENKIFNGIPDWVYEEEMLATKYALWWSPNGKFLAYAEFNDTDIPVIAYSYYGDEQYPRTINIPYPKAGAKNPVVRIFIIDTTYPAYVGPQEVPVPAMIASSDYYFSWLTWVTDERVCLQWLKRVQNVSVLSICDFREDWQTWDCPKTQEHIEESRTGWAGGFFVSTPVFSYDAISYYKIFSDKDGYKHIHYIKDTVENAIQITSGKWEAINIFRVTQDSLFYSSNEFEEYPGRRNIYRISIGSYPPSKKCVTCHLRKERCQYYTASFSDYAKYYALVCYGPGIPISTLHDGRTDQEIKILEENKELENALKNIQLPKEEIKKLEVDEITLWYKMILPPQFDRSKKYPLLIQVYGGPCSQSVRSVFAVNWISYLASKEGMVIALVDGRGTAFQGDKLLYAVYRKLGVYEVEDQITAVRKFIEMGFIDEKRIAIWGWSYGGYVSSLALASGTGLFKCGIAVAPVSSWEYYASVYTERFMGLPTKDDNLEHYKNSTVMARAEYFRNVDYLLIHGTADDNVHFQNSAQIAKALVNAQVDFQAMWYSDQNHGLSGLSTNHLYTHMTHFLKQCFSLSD


Assays:
hFAP-Fc [1] = molecular target: T1, hFAP-Fc; experiment: ELISA on coated hFAP-Fc; 0 h in mouse serum
Description: (§1) High binding plates (Greiner, 781061) were immobilized with 2.5 μg/ml hFAP-Fc or 1.2 μg/ml Her2-Fc over night at 4° C. Dilution series of 3 μM to 0.07 pM of fusion proteins with binding specifically to Her2 were incubated in 100% human serum or 100% mouse serum for 24 h at 37° C. Dilution series of 3 µM to 0.2 pM or 1 μM to 0.01 fM of fusion proteins with binding specifically to hFAP were incubated in 100% human serum or 100% mouse serum for 24 h at 37° C. ELISA-plates were washed three times with PBST (PBS+0.1% Tween) and blocked with 3% BSA/0.5% Tween/PBS up to 2 h at room temperature (rt). After preincubation for 0 h or 24 h in the presence of serum the dilution series were incubated on ELISA-plates for up to 1 h at rt. Wells were washed with PBST and incubated with biotinylated anti-ubiquitin-antibody (1:300) for up to 1 h at rt. The binding was visualized with Streptavidin-HRP (1:5.000).
(§2) The fusion proteins comprise the albumin binding domain (referred to as HED) and the targeting moiety.

hFAP-Fc [2] = molecular target: T1, hFAP-Fc; experiment: ELISA on coated hFAP-Fc; KD 24 h against KD 0 h, human serum
Description: as §1, §2

[3] = molecular target: T2, human fibroblast activation protein …; experiment: flow cytometry on HEK293-hFAP cells, 0 h in mouse serum
[4] = molecular target: T2, human fibroblast activation protein …; experiment: flow cytometry on HEK293-hFAP cells, 24 h in mouse serum
[5] = molecular target: T2, human fibroblast activation protein …; experiment: flow cytometry on HEK293-hFAP cells, fusion protein pre-incubated 24 h in mouse serum at 37 C
[6] = molecular target: T2, human fibroblast activation protein …; experiment: flow cytometry, dilution series on HEK293-hFAP cells
hFAP-Fc [7] = molecular target: T1, hFAP-Fc; experiment: ELISA on coated hFAP-Fc; KD 24 h against KD 0 h, mouse serum
Description: as §1, §2

[8] = molecular target: T2, human fibroblast activation protein …; experiment: flow cytometry on HEK293-hFAP cells, fusion protein pre-incubated 0 h in mouse serum (control)
hFAP-Fc [9] = molecular target: T1, hFAP-Fc; experiment: ELISA on coated hFAP-Fc; 24 h in human serum at 37 C
Description: as §1, §2

hFAP-Fc [10] = molecular target: T1, hFAP-Fc; experiment: ELISA on coated hFAP-Fc; 24 h in mouse serum at 37 C
Description: as §1, §2

hFAP-Fc [11] = molecular target: T1, hFAP-Fc; experiment: ELISA on coated hFAP-Fc; 0 h in human serum
Description: as §1, §2

human serum albumin = molecular target: T3, human serum albumin (human, UniProt P02768 25-609); experiment: SPR, HSA immobilised on the chip, pH 7.3, 1:1 Langmuir fit [continued]
Sequence of human serum albumin (P02768 25-609 limits assumed): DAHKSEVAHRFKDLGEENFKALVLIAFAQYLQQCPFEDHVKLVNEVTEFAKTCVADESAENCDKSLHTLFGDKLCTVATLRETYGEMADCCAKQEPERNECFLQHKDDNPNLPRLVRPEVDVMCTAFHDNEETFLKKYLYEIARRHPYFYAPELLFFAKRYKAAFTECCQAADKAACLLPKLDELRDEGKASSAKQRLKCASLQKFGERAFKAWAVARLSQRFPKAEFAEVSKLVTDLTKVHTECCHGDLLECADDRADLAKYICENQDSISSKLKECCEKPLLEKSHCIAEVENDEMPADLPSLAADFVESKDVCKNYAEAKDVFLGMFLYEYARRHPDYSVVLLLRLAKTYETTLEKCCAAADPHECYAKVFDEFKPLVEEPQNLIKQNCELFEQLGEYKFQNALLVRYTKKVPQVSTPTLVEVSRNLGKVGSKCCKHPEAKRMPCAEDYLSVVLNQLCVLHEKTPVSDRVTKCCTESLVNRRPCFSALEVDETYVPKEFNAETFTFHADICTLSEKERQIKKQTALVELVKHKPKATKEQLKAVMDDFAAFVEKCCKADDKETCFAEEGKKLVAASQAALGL
T3 construct: also called HSA
Description: Recombinant protein A, HSA, MSA or target (either ED-B or Her2) was immobilized on a High Capacity Amine sensor chip (Bruker) after NHS/EDC activation with a Sierra SPR-32 system (Bruker). The chip was equilibrated with SPR running buffer (PBS 0.05%, Tween pH 7.3). Injection of ethanolamine after target immobilization was used to block free NHS groups. To determine the binding of fusion proteins to FAP, the Fc-tagged target was injected with 60 or 30 nM to Protein A coupled spots followed by the injection of fusion proteins.
Binding proteins were applied to the chip in serial dilutions with a flow rate of 30 μl/min. Upon binding, analyte accumulated on the surface increasing the refractive index. This change in the refractive index was measured in real time and plotted as response or resonance units versus time. The association was performed for 120 seconds and the dissociation for 180 seconds. After each run, the chip surface was regenerated with 30 μl regeneration buffer (10 mM glycine pH 2.0 or pH 1.5) and equilibrated with running buffer. Binding studies were carried out using the Sierra SPR-32 system (Bruker); data evaluation was operated via the Sierra Analyser software, provided by the manufacturer, by the use of the Langmuir 1:1 model (RI=0).

Binder	Kd (hFAP-Fc [1])	increase of KD vs target [fold] (hFAP-Fc [2])	EC50 (read off the curve) [3]	EC50 (read off the curve) [4]	Kd [5]	Kd [6]	increase of KD vs target [fold] (hFAP-Fc [7])	Kd [8]	Kd (hFAP-Fc [9])	Kd (hFAP-Fc [10])	Kd (hFAP-Fc [11])	Kd (human serum albumin)
217990 (FAP specific targeting moiety without albumin binding domain) (designed binder, also called CID 217990) MQIFVKTLTPEWHIIGKTITLEVEPSDTIENVKAKIQDKEGIPPDQQNLAWAGKQLEDGRTLSDYNIQGGSMLMLKLHLRAA	0.73 nM	1.01 fold	–	–	–	–	1.51 fold	–	1.18 nM	1.1 nM	1.17 nM	–
fusion protein 218700 (designed binder) MQIFVKTLTPEWHIIGKTITLEVEPSDTIENVKAKIQDKEGIPPDQQNLAWAGKQLEDGRTLSDYNIQGGSMLMLKLHLRAAGGGGSGGGGSMQIFVKTLTPEWHIIGKTITLEVEPSDTIENVKAKIQDKEGIPPDQQNLAWAGKQLEDGRTLSDYNIQGGSMLMLKLHLRAAGGGGSGGGGSLAEAKVLALKELDKYGISNYYKNLINNAKTVEGVKALKEAIVAA	0.1 nM	1.31 fold	–	–	–	–	1.2 fold	–	0.72 nM	0.12 nM	0.55 nM	–
220898 (designed binder, order of parts as in the construct name; also called 206479_c48) fusion protein: MQIFVKTLTGKTITLEVEPSDTTENVKAKIQDKEGIPPDQQTLAFVGKQLEDGRTLSDYNIQKESTLWLYLTLRAAMRIFVKTHTGKTITLDVEPSDTIENVKAKIQDKEGIPPDQQRLIWAGKQLEDGRTLSDYNIQEWAILHLVLRLRAALAEAKVLALKELDKYGISNYYKNLIDKAKTIEGVEALKDAILAA	–	–	–	–	–	–	–	–	–	–	–	3.4 nM

Next, values leading:

Kd (hFAP-Fc [1])	increase of KD vs target [fold] (hFAP-Fc [2])	EC50 (read off the curve) [3]	EC50 (read off the curve) [4]	Kd [5]	Kd [6]	increase of KD vs target [fold] (hFAP-Fc [7])	Kd [8]	Kd (hFAP-Fc [9])	Kd (hFAP-Fc [10])	Kd (hFAP-Fc [11])	Kd (human serum albumin)	Binder
0.11 nM	0.95 fold	~0.2 nM	~0.3 nM	0.27 nM	0.28 nM	1.18 fold	0.19 nM	1 nM	0.13 nM	1.05 nM	–	fusion protein 218702 (designed binder) MQIFVKTLTPEWHIIGKTITLEVEPSDTIENVKAKIQDKEGIPPDQQNLAWAGKQLEDGRTLSDYNIQGGSMLMLKLHLRAAGGGGSGGGGSMQIFVKTLTPEWHIIGKTITLEVEPSDTIENVKAKIQDKEGIPPDQQNLAWAGKQLEDGRTLSDYNIQGGSMLMLKLHLRAAGGGGSGGGGSLAEAKVLALKELDKYGISNYYKNLINNAKTVEGVKALKEAIVAAGGGGSGGGGSLAEAKVLALKELDKYGISNYYKNLINNAKTVEGVKALKEAIVAA
0.31 nM	1.56 fold	–	–	–	–	2.29 fold	–	0.54 nM	0.71 nM	0.35 nM	–	217832 (FAP specific targeting moiety without albumin binding domain) (designed binder, also called CID 217832) MQIFVWTRINKLITLEVEPSDTIENVKAKIQDKEGIPPDQQSLYWKGKQLEDGRTLSDYNINIWPNLYLSLRAA
